Read-outs that look alike come from different tables or passages of the source.
What was measured:
[1] = system: T. brucei brucei parasites (Lister 427 strain); experiment: Dose response growth inhibition assay (resazurin, 72 h); assay type: cell-based; details: Trypanosoma brucei, read-out: Tbb pEC50 (converted)
Description: Greiner sterile black clear bottom 384-well assay plates were pre-dispensing with 200 nL of compound in each well, from master plates at 1 mM (100% DMSO) containing selection from the GSK compound collection. Controls of 0% response (control 1, 200 nL of 100%DMSO) and 100% response (control 2, 200 nL of 1 mM pentamidine) were included in each assay plate in columns 6 and 18, respectively. Plates containing 200 nL of 100% DMSO were included randomly in the assay, to assess quality through all process. […] After this period, 10 µL of 200 µM resazurin solution in prewarmed HMI-9 were added to each well, and plates were allowed to incubate 2 hours more prior fluorescence reading in a Wallac EnVision Multilabel Plate Reader (Perkin-Elmer). Raw fluorescent data from the Envision plate reader were uploaded into GSK HTS database (ActivityBase). Activity of each well was normalized as a percentage of inhibition per-plate basis using the following equation: [drawing 1]
For dose-response experiments, serial compound dilutions of selected hits from the primary campaign were plotted against compound concentration. Dose response master plates were prepared by 3-fold dilutions (starting with 10 mM DMSO stock solutions), providing 11 concentrations. From these master plates, 200 nL per well was stamped in final assay plates, including the same controls describe in the primary single shot assay. […]

[2] = molecular target: Cytochrome P450 (CYP450) (Homo sapiens, UniProt P08684); experiment: Cytochrome P450 inhibition profile; assay type: in vitro ADME; details: Measured
Description: The P450 inhibition profile of the inhibitors was determined as previously described.

[3] = system: HepG2 cells; experiment: Cytotoxicity assay (Cell Titer Glo, 48 h); details: HepG2 cytotoxicity
Description: This assay was used as selectivity assay, and selected hits from the primary were test in dose response concentration against HepG2 in order to identify the level of host cell cytotoxicity. Dose response starting at 10 mM and with 3-fold dilutions for 11 points, were made in 1,536-well master plates. 50 nL per well from them were stamped in final assay plates. The human biological samples were sourced ethically and their research use was in accord with the terms of informed consent.
Cell density was adjusted to 60,000 cells/mL as working concentration in prewarmed Eagle's MEM medium. Seeding density was be checked to ensure that new monolayers are not more than ∼ 50% confluent at the time of seeding (typically 3,000 cells per well), before completing preparation of plates. […] Viability was determined by Cell Titer Glo Kit (Promega) according to manufacturer's instructions: briefly, reconstituted Cell Titer Buffer was equilibrated to room temperature prior its use and 5 µL per well were dispensed with a Multidrop Combi Reagent Dispenser. Contents were mixed on a plate orbital shaker and incubated for 10 min at room temperature, to allow the signal to stabilize before luminescence reading on ViewLux Plate Reader (Perkin-Elmer).
Raw Luminescence data from the ViewLux reader were uploaded into GSK HTS database (ActivityBase). […]

[4] = CLND kinetic solubility assay; assay type: physicochemical; details: pH 7.4, aqueous buffer, kinetic from dmso stock; Measured; read-out: Aq Sol
Description: 5 µL of 10 mM DMSO stock solution was diluted to 100 µL with pH 7.4 phosphate buffered saline, equilibrated for 1 hour at room temperature, filtered through Millipore MultiscreenHTS-PCF filter plates (MSSL BPC). The filtrate was quantified by suitably calibrated flow injection Chemi-Luminescent Nitrogen Detection.

[5] = molecular target: T1, Human Serum Albumin (HSA) (Homo sapiens, UniProt P02768); experiment: Protein binding assay (HPLC stationary phase), HSA; assay type: in vitro ADME; details: Measured
T1 construct: purchased Chiral Technologies, France
Description: Chemically bonded Human Serum Albumin (HSA) and Alpha-1-acidglycoprotein HPLC stationary phases (Chiral Technologies, France) were used for measuring compounds' binding to plasma proteins, applying linear gradient elution up to 30% iso-propanol. The run time was 6 min, including the re-equilibration of the stationary phases with the 50 mM pH7.4 ammonium acetate buffer. The obtained gradient retention times were standardised using a calibration set of mixtures as described in the references. The average standard error of the assay depends on the binding strength and kinetics of the compounds.

[6] = ChromlogD assay
Description: The Chromatographic Hydrophobicity Index (CHI)[22] values were measured using reversed phase HPLC column (Luna C18 (2), Phenomenex, UK) with a fast acetonitrile gradient at starting mobile phase of pH = 7.4. CHI values are derived directly from the gradient retention times by using a calibration line obtained for standard compounds. The CHI value approximates to the volume % organic concentration when the compound elutes. […] The average error of the assay is ±3 CHI unit or ±0.25 ChromlogD.

**Q.** Which results are given for `CN(C)Cc1ccc(-c2cc3c(-c4cnn(C)c4)ccnc3[nH]2)cc1` [NEU-0001200]?
**A.** EC50 [1]: 20 nM; IC50 ([2]; CYP3A4, VG substrate, read-out: CYP3A4VG pXC50 (converted)): 2510 nM; IC50 ([2]; CYP3A4, VR substrate, read-out: CYP3A4VR pXC50 (converted)): > 50100 nM; HepG2 pTC50 [3]: 4.3

**Q.** With `CCn1c(-c2nonc2N)nc2cncc(C(=O)N3CC[C@H](N)C3)c21` [NEU-0001883] as the molecule, how does the EC50 [1] read?
**A.** Its EC50 is 794 nM.

**Q.** And the solubility kinetic at 1 h [4]?
**A.** Its solubility kinetic at 1 h is at least 226 µM.

**Q.** What about the “HepG2 pTC50” value [3] of the same molecule?
**A.** Its value is under 4.

**Q.** With `Cn1cc(-c2cnc3[nH]cc(-c4cccc(C#N)c4)c3c2)cn1` [NEU-0001207] as the molecule, how does the HSA % binding [5] read?
**A.** Its HSA % binding is 95.36%.

**Q.** Which PFI [6] does the source give for `Nc1nccc(-c2c(-c3ccc(F)cc3)ncn2C2CCNCC2)n1` [NEU-0001231] here?
**A.** Its PFI is 4.12.

Reference: PMC4207660, “Identification and Characterization of Hundreds of Potent and Selective Inhibitors of Trypanosoma brucei Growth from a Kinase-Targeted Library Screening Campaign” (PLoS Neglected Tropical Diseases, 2014)
